Test results from patent US20190302117.

How the values were obtained:
[1] = biological target: T1, Peptide 10: EDPIYVTLEGGKKK (version of peptide 2 used for the kinetic experiments)
T1 chain: EDPIYVTLEGGKKK

[2] = biological target: T2, Peptide 11: DEAIYATVAGGKKK (version of peptide 5 used for the kinetic experiments)
T2 chain: DEAIYATVAGGKKK

B1: Human ABL (purchased from Life Technologies) (protein)
chain: MLEICLKLVGCKSKKGLSSSSSCYLEEALQRPVASDFEPQGLSEAARWNSKENLLAGPSE[letters of about 60 residues not shown]LEKHSWYHGPVSRNAAEYLLSSGINGSFLVRESESSPGQRSISLRYEGRVYHYRINTASDGKLYVSSESRFNTLAELVHHHSTVADGLITTLHYPAPKRNKPTVYGVSPNYDKWEMERTDITMKHKLGGGQYGEVYEGVWKKYSLTVAVKTLKEDTMEVEEFLKEAAVMKEIKHPNLVQLLGVCTREPPFYIITEFMTYGNLLDYLRECNRQEVNAVVLLYMATQISSAMEYLEKKNFIHRDLAARNCLVGENHLVKVADFGLSRLMTGDTYTAHAGAKFPIKWTAPESLAYNKFSIKSDVWAFGVLLWEIATYGMSPYPGIDLSQVYELLEKDYRMERPEGCPEKVYELMRACWQWNPSDRPSFAEIHQAFETMFQESSISDEVEKELGKQGVRGAVSTLLQAPELPTKTRTSRRAAEHRDTTDVPEMPHSKGQGESDPLDHEPAVSPLLPRKERGPPEGGLNEDERLLPKDKKTNLFSALIKKKKKTAPTPPKRSSSFREMDGQPERRGAGEEEGRDISNGALAFTPLDTADPAKSPKPSNGAGVPNGALRESGGSGFRSPHLWKKSSTLTSSRLATGEEEGGGSSSKRFLRSCSASCVPHGAKDTEWRSVTLPRDLQSTGRQFDSSTFGGHKSEKPALPRKRAGENRSDQVTRGTVTPPPRLVKKNEEAADEVFKDIMESSPGSSPPNLTPKPLRRQVTVAPASGLPHKEEAGKGSALGTPAAAEPVTPTSKAGSGAPGGTSKGPAEESRVRRHKHSSESPGRDKGKLSRLKPAPPPPPAASAGKAGGKPSQSPSQEAAGEAVLGAKTKATSLVDAVNSDAAKPSQPGEGLKKPVLPATPKPQSAKPSGTPISPAPVPSTLPSASSALAGDQPSSTAFIPLISTRVSLRKTRQPPERIASGAITKGVVLDSTEALCLAISRNSEQMASHSAVLEAGKNLYTFCVSYVDSIQQMRNKFAFREAINKLENNLRELQICPATAGSGPAATQDFSKLLSSVKEISDIVQR
2/5 kcat/Km ratio (peptide 2 against peptide 5) [1]: 0.13
Km [1]: > 200 µM
kcat [1]: > 4 s⁻¹
kcat/Km [1]: 20100 M⁻¹ s⁻¹
Km [2]: 101 µM
kcat [2]: 16.5 s⁻¹
kcat/Km [2]: 160000 M⁻¹ s⁻¹
